{"source": "patent US20150044245A1", "about": "“PARTIAL MHC CONSTRUCTS AND METHODS OF USE” (Oregon Health & Science University, priority 2012, published 2015)", "key": {"[1]": {"target": "four-domain MHC class II from DR*1501-Tg mice (human transgene expressed in mouse)", "test": "direct saturation binding of FITC-labeled construct to MHC class II immuno-adsorbed on Protein L/L243 beads; one-site fit"}, "[2]": {"target": "RTL binding sites on CD11c+ cells of DR*1501-Tg mouse blood", "test": "flow cytometry; blood of naive DR*1501-Tg mice 15 minutes after injection of 500 µg FITC-labeled RTL; monocyte gate, live cells; No RTL (pre-injection) panel 0.12%"}, "[3]": {"target": "RTL binding sites on CD19+ cells of DR*1501-Tg mouse blood", "test": "flow cytometry; blood of naive DR*1501-Tg mice 15 minutes after injection of 500 µg FITC-labeled RTL; monocyte gate, live cells; No RTL (pre-injection) panel 0.12%"}, "[4]": {"target": "RTL binding sites on CD3+ cells of DR*1501-Tg mouse blood", "test": "flow cytometry; blood of naive DR*1501-Tg mice 15 minutes after injection of 500 µg FITC-labeled RTL; monocyte gate, live cells; No RTL (pre-injection) panel 0.12%"}, "[5]": {"target": "RTL binding sites on CD11b+ monocytes of DR*1501-Tg mice", "test": "flow cytometry; blood of naive DR*1501-Tg mice 15 minutes after injection of 500 µg FITC-labeled RTL; monocyte gate, live cells; No RTL (pre-injection) panel 0.14%"}, "[6]": {"target": "RTL binding sites on CD11b+ monocytes of DR*1501-Tg mice", "test": "flow cytometry; blood of naive DR*1501-Tg mice 15 minutes after injection of 500 µg FITC-labeled RTL; LYMPHOCYTE gate, live cells; No RTL (pre-injection) panel 0.00%"}, "[7]": {"target": "RTL binding sites on CD11c+ cells of DR*1501-Tg mouse blood", "test": "flow cytometry; blood of naive DR*1501-Tg mice 15 minutes after injection of 500 µg FITC-labeled RTL; lymphocyte gate, live cells; No RTL (pre-injection) panel 0.00%"}, "[8]": {"target": "RTL binding sites on CD19+ cells of DR*1501-Tg mouse blood", "test": "flow cytometry; blood of naive DR*1501-Tg mice 15 minutes after injection of 500 µg FITC-labeled RTL; lymphocyte gate, live cells; No RTL (pre-injection) panel 0.00%"}, "[9]": {"target": "RTL binding sites on CD3+ cells of DR*1501-Tg mouse blood", "test": "flow cytometry; blood of naive DR*1501-Tg mice 15 minutes after injection of 500 µg FITC-labeled RTL; lymphocyte gate, live cells; No RTL (pre-injection) panel 0.05%"}, "[10]": {"target": "RTL binding sites on CD19+ cells of DR*1501-Tg mouse blood", "test": "flow cytometry; blood of naive DR*1501-Tg mice incubated in vitro with FITC-labeled RTL (legend: 500 µg), 90 minutes post-treatment; monocyte gate; No RTL (pre-treatment) panel 0.00%"}, "[11]": {"target": "RTL binding sites on CD3+ cells of DR*1501-Tg mouse blood", "test": "flow cytometry; blood of naive DR*1501-Tg mice incubated in vitro with FITC-labeled RTL (legend: 500 µg), 90 minutes post-treatment; monocyte gate; No RTL (pre-treatment) panel 0.00%"}, "[12]": {"target": "RTL binding sites on CD11b+ monocytes of DR*1501-Tg mice", "test": "flow cytometry; blood of naive DR*1501-Tg mice incubated in vitro with FITC-labeled RTL (legend: 500 µg), 90 minutes post-treatment; monocyte gate; No RTL (pre-treatment) panel 0.07%"}, "[13]": {"target": "RTL binding sites on CD11c+ cells of DR*1501-Tg mouse blood", "test": "flow cytometry; blood of naive DR*1501-Tg mice incubated in vitro with FITC-labeled RTL (legend: 500 µg), 90 minutes post-treatment; monocyte gate; No RTL (pre-treatment) panel 0.09%"}, "[14]": {"target": "RTL binding sites on CD11b+ monocytes of DR*1501-Tg mice", "test": "flow cytometry; blood of naive DR*1501-Tg mice incubated in vitro with FITC-labeled RTL (legend: 500 µg), 90 minutes post-treatment; LYMPHOCYTE gate; No RTL (pre-treatment) panel 0.00%"}, "[15]": {"target": "RTL binding sites on CD11c+ cells of DR*1501-Tg mouse blood", "test": "flow cytometry; blood of naive DR*1501-Tg mice incubated in vitro with FITC-labeled RTL (legend: 500 µg), 90 minutes post-treatment; lymphocyte gate; No RTL (pre-treatment) panel 0.00%"}, "[16]": {"target": "RTL binding sites on CD19+ cells of DR*1501-Tg mouse blood", "test": "flow cytometry; blood of naive DR*1501-Tg mice incubated in vitro with FITC-labeled RTL (legend: 500 µg), 90 minutes post-treatment; lymphocyte gate; No RTL (pre-treatment) panel 0.00%"}, "[17]": {"target": "RTL binding sites on CD3+ cells of DR*1501-Tg mouse blood", "test": "flow cytometry; blood of naive DR*1501-Tg mice incubated in vitro with FITC-labeled RTL (legend: 500 µg), 90 minutes post-treatment; lymphocyte gate; No RTL (pre-treatment) panel 0.00%"}}}
{"substance": "RTL342M (pDR2/mMOG-35-55) (peptide-MHC)", "values": [{"measurement": "Kd", "setting": "[1]", "value": 2.04, "unit": "nM"}, {"measurement": "% of cells in the upper right quadrant (CD11c APC+, RTL FITC+)", "setting": "[2]", "value": 12.3, "unit": "%"}, {"measurement": "% of cells in the upper right quadrant (CD19 APC+, RTL FITC+)", "setting": "[3]", "value": 5.99, "unit": "%"}, {"measurement": "% of cells in the upper right quadrant (CD3 PE+, RTL FITC+)", "setting": "[4]", "value": 5.51, "unit": "%"}, {"measurement": "% of cells in the upper right quadrant (CD11b PE+, RTL FITC+)", "setting": "[5]", "value": 60.8, "unit": "%"}, {"measurement": "% of cells in the upper right quadrant (CD11b PE+, RTL FITC+)", "setting": "[6]", "value": 16.2, "unit": "%"}, {"measurement": "% of cells in the upper right quadrant (CD11c APC+, RTL FITC+)", "setting": "[7]", "value": 4.15, "unit": "%"}, {"measurement": "% of cells in the upper right quadrant (CD19 APC+, RTL FITC+)", "setting": "[8]", "value": 1.63, "unit": "%"}, {"measurement": "% of cells in the upper right quadrant (CD3 PE+, RTL FITC+)", "setting": "[9]", "value": 0.37, "unit": "%"}, {"measurement": "% of cells in the upper right quadrant (CD19 APC+, RTL FITC+)", "setting": "[10]", "value": 10.1, "unit": "%"}, {"measurement": "% of cells in the upper right quadrant (CD3 PE+, RTL FITC+)", "setting": "[11]", "value": 4.7, "unit": "%"}, {"measurement": "% of cells in the upper right quadrant (CD11b PE+, RTL FITC+)", "setting": "[12]", "value": 78.9, "unit": "%"}, {"measurement": "% of cells in the upper right quadrant (CD11c APC+, RTL FITC+)", "setting": "[13]", "value": 6.12, "unit": "%"}, {"measurement": "% of cells in the upper right quadrant (CD11b PE+, RTL FITC+)", "setting": "[14]", "value": 4.31, "unit": "%"}, {"measurement": "% of cells in the upper right quadrant (CD11c APC+, RTL FITC+)", "setting": "[15]", "value": 2.72, "unit": "%"}, {"measurement": "% of cells in the upper right quadrant (CD19 APC+, RTL FITC+)", "setting": "[16]", "value": 4.87, "unit": "%"}, {"measurement": "% of cells in the upper right quadrant (CD3 PE+, RTL FITC+)", "setting": "[17]", "value": 2.69, "unit": "%"}]}
